The source of these data is the RNAGym collection of RNA variant scans (doi:10.7554/elife.90254).

The source gives no read counts; variants with many changes may rest on few reads.

The labels stand for the following.
B1: LINE1-full (parent)
chain: UACGUAGGUGGUUUUCCCCUGAUAGUGCUAAGGGGGCCUGGAAGUUUGGACUGGGCAGAGCUCAACACAGCGUGGCAAAGUGGCUGUGGCUAGACUGCCUCUCUGGAUUCCUCGUCACUCAGCAGGGCAUCUCUGAGAGAAAUGCC

The variants in this data set derive from B1. The experiment in a line: self-cleavage, relative activity (ratio to wild type); higher = more cleavage; in vitro, sequencing; the parent is a self-cleaving ribozyme.
With UACGUAGGUGGCUUUCCCCUGAUAGUGCUAAGGGGGCCUGGAAGUUUGGACUGGCCAGAGCUCAACACAGCGUGGCAAAGUGGCUGUGGCUAGACUGCCUCUCUGGAUUCCUCGUCACUCAGCAGGGCACCUCUGAGAUAAAUGCC [U12C G55C U130C G139U], the self-cleavage is 0.22.

Consider UACGUAGGUGGCUCUCCCCUGAUAGUGCUAAGGGGGCCUGGAAGUUUGGACUGGGCAGAGCUCAACACAGCGUGGCAAGGUGGCUGUGGCUAGACUGCCUCUCUGGAUUCCUCGUCACUCAGCAGGGCAUCUCUGAGAGAAAUGCC [U12C U14C A79G], for which the self-cleavage worked out at 0.32.

As to UACGUAGGUGGCCUUCCCCUGAUAGUGCUAAGGGGGCCUGGAAGUUUGGACUGGGCAGAGCUCAACACAGCGUGGCAAAGUGGCUGUGGCUAGUCUGCCUCUCUGGAUUCCUCGUCACUCAGCAGGGCAUCUCUGAGAGAAAUGCC [U12C U13C A94U], the self-cleavage stood at 0.58.

For the variant UACGUAGGUGGCUCUCCCCUGAUAGUGCUAAGGGGGCCUGGAAGUUUGGACUGGGCAGAGCUCAACGCAGCGUGGCAAAGUGGCUGUGGCUAGACUGCCUCUCUGGAUUCCUCGUCACUCAGCAGGGCCUCUCUGAGAGAAAUGCC [U12C U14C A67G A129C], the self-cleavage came to 0.

Consider UACGUAGGUGGCCUUCCCCUGAUAGUGCUAAGGGGGCCUGGAAGUUUGGGCUGGGCAGAGCUCAACACAGCGUGGCAAAGUGGCUGUGGCUAGACUGCCUCUCUGGAUUCCUCGUCACUCAGCAGGGCAUCUCUGAGAGAAAUGCC [U12C U13C A50G], for which the self-cleavage amounted to 1.5.

Consider UACGUAGGUGGCUUUCCCCUGAUAGUGCUAAGGGGGCCUGGAAGUUUGGACUGGGCAAAGCUCAACGCAGCGUGGCAAAGUGGCUGUGGCUAGACUGCCUCCCUGGAUUCCUCGUCACUCAGCAGGGCAUCUCUGAGAGAAAUGCC [U12C G58A A67G U102C], for which the self-cleavage is 0.

As to UACGUAGGUGGCUUUCCCCUGAUAGUGCUAAGGGGGCCUGGAAGUUUGGACUAGGCUGAGCUCAACACAGCGUGGCAAAGUGGCUGUGGCUAGACUGCCUCUCUGGAUUCCUCGUCACUCAGCAGGGCAUCUCUGAGAGAAAUGCC [U12C G53A A57U], the self-cleavage came to 0.09.

UACGUAGGUGGCUCUCCCCUGAUAGUGCUAAGGGGGCCUGGAAGUUUGGACUGAGCAGAGCUCAACACAGCGUGGCAAAGUGGCUGUGGCUAGACUGCCUCUCUGGAUUCCUCGUCACUCAGCAGGGCAUCUCUGAGAGAAAUGCC [U12C U14C G54A]: the self-cleavage turned out to be 0.74.

With UACGUAGGUGGCCUUCCCCUGAUAGUGCUAAGGGGGCCUGGAAGUUUGGACUGGGCAGAGCUCAACACAGCGUGGCGAAGUGGCUGUGGCUAGACUGCCUCUCUGGAUUCCUCGUCACUCAGCAGGGCAUCUCUGAGAGAAGUGCC [U12C U13C A77G A142G], the self-cleavage is 1.35.

In the case of UACGUAGGUGGCUUUCCCCUGAUAGUGCUAAGGGGGCCUGGAAGUUUGGACUGGGCAGAACUCAACACAGCGUGGCAAAGUGGCUGUGGCUAGACUGCCUCCCUGGAUUCCUCGUCACUCAGCAGGGCAUCUCUGAGAGAAAUGCC [U12C G60A U102C], the self-cleavage came to 0.02.

Take UACGUAGGUGGCUCUCCCCUGAUAGAGCUAAGGGGGCCUGGAAGUUUGGACUGGGCAGAGCUCAACACAGCGUGGCAAAGUGGCUGUGGCUAGACUGCCUCUCUGGAUUCCUCGUCACUCAGCAGGGCAUCUCUGAGAGAAAUGCC [U12C U14C U26A]: the self-cleavage came out at 0.6.

Regarding UACGUAGGUGGCUCUCCCCUGAUAGUGCUAAGGGGGCCUGGGAGUUUGGACUGGGCAGAGCUCAACACAGCGUGGCAGAGUGGCUGUGGCUAGACUGCCUCUCUGGAUUCCUCGUCACUCAGCAGGGCAUCUCUGAGAGAAAUGCC [U12C U14C A42G A78G], the self-cleavage amounted to 0.

Take UACGUAGGUGGCUCUCCCCUGAUAGUGCUAAGGGGGCCUGGAAGUUUGGACUGGGCAGAGCUCAACGCAGCGUGGCAAAGUGGCUGUGGCUAGACUGCCUCUCUGGAUUCCUCGUCACUCAGCGGGGCAUCUCUGAGAGAAAUGCC [U12C U14C A67G A124G]: the self-cleavage was 0.

Regarding UACGUAGGUGGCUUUCCCCUGAUAGUGCUAAGGGGGCCUGGAAGUUUGGACUGGGCAGAGCUCAACACAACGUGGCAAAGUGGCUGUGGCUAGACUGCCUCUCUGGAUUCCUUGUCACUCGGCAGGGCAUCUCUGAGAGAAAUGCC [U12C G70A C113U A121G], the self-cleavage was found to be 0.07.

In the case of UACGUAGGUGGCCUUCCCCUGAUAGUGCUAAGGGGGCCUGGAAGUUUGGACUGGGCAGAGCUCAACACAGCGUGGCUAAGUGGCUGUGGCUAGACUGCCUCUCUGGAUUCCUCGUCACUCAGCAGGGCAUCUCAGAGAGAAAUGCC [U12C U13C A77U U134A], the self-cleavage worked out at 1.2.

On to UACGUAGGUGGCUCUCCCCUGAUAGUGCUAAGGGGGCCUGGAGGUUUGGACUGGGCAGAGCUCAACACAGCGUGGCAAAGUGGCUGUGGCUAGACUGCCUCUCUGGAUUCCUCGUCACACAGCAGGGCAUCUCUGAGAGAAAUGCC [U12C U14C A43G U119A], for which the self-cleavage was determined as 0.97.

For the variant UACGUAGGUGGCCUUCCCCUGAUAGUGCUAAGGGGGCCUGGAGGUUUGGACUGGGCUGAGCUCAACACAGCGUUGCAAAGUGGCUGUGGCUAGACUGCCUCUCUGGAUUCCUCGUCACUCAGCAGGGCAUCUCUGAGAGAAAUGCC [U12C U13C A43G A57U G74U], the self-cleavage came out at 0.24.

Regarding UACGUAGGUGGCCUUCCCCUGAUAGUGCUAAGGGGGCCUGGAAGUUUGGACUGGGCAGAGCUCAACACAGCGUGGCAAAGUGGCUGUGGCUAGACUGCCUCUCUGGAUUCCUCGUCACUCGGCAGGGCAACUCUGAGAGAAAUGCC [U12C U13C A121G U130A], the self-cleavage amounted to 2.16.

Regarding UACGUAGGUGGCUCUCCCCUGAUAGUGCUAAGGGGGCCUGGAAGUUUGGACUGGGCAGAGCUCAACACAGCGUGGCAAAGUAGCUGUGGCUAGACUGCCUCUCUGGAUUCCUCGUCACUCAGCAAGGCACUUCUGAGAGAAAUGUC [U12C U14C G82A G125A U130C C131U C145U], the self-cleavage was 1.8.

For the variant UACGUAGGUGGCAUUCCCCUGAUAGUGCUAAGGGGGCCAGGAAGUUUGGACUGGGCAGAGCUCAACACAGCGUGGCAAAGUGGCCGUGGCUAGACUGCCUCUCUGGAUUCCUCGUCACUCAGCAGGGCAUCUCUGAGAGAAAUGCC [U12C U13A U39A U85C], the self-cleavage stood at 0.06.
